Data: PubChem BioAssay AID504332 (National Center for Advancing Translational Sciences (NCATS), 2011)
Out of some 350,000 compounds screened, about 31,000 (8.9%) were called active. The shares of active, inactive and inconclusive entries below differ from those in the screen. The call rests on the fitted dose curve; in most records, active means well fitted inhibition curve with a large enough effect; inconclusive means small, poorly fitted or top-dose-only effect; inactive means no such curve, though single readings can be large or run the other way. Potencies beside an inconclusive call are fits to weak or partial responses and may not hold up.

Biological target: Histone-lysine N-methyltransferase EHMT2 (Homo sapiens) (UniProt Q96KQ7)
Assay: qHTS Assay for Inhibitors of Histone Lysine Methyltransferase G9a; further: nearly all actives have a fitted effect of over 75% in size
Conditions: G9a H3K9 monomethylation, AlphaScreen, 2 h; activity, negative = inhibition: at 59 µM (top of the series) unless noted
In short: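 Using a bead-based AlphaScreen, monomethylated H3K9 product from 2 h room-temperature reactions (G9a 20 nM, peptide 500 nM, SAM 20 uM) was detected with 0.5 ug/mL rabbit anti-H3K9me1 antibody.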
On the % scale 0 is the no-effect control and ±100 the full control effect; potency means the concentration at half of the fitted maximal effect; tags describe the fitted curve by direction and shape.

Chain of UniProt Q96KQ7 (Q96KQ7 whole entry, looked up): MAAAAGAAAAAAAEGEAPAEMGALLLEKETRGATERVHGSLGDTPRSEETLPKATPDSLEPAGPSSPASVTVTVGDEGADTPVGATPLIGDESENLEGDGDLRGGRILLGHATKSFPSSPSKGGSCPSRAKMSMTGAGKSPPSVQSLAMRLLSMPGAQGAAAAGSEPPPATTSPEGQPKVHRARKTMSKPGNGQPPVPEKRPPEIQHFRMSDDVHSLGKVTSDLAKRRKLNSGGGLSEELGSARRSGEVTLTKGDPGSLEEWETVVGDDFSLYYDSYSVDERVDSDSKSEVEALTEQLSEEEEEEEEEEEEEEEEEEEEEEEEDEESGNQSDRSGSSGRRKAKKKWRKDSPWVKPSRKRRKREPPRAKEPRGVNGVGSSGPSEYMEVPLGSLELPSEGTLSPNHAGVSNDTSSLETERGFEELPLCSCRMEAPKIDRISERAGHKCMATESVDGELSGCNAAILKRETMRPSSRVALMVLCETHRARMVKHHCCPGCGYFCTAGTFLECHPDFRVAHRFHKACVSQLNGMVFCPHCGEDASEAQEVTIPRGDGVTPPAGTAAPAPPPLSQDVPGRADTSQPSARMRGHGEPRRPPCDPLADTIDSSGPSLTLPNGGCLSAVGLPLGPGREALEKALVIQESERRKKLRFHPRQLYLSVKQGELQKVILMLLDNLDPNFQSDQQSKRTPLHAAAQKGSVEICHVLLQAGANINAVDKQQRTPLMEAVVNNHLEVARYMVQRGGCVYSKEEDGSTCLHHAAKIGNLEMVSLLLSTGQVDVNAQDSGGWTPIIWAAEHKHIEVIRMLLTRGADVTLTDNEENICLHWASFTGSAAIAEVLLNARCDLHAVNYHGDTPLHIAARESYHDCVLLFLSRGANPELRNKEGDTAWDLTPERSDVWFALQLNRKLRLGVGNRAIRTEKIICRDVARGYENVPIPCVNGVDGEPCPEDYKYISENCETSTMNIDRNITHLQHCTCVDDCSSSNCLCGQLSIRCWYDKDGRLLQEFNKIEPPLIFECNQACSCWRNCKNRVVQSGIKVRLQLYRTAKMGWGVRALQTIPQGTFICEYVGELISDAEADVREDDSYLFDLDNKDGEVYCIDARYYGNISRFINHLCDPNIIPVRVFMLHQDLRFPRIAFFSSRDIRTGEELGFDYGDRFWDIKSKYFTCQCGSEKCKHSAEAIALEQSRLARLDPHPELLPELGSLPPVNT

Q: `CCC(C)NC(=O)CN1C(=O)c2cccnc2Sc2ccccc21` (stereo not given) was tested. Which Potency did it give?
A: Its Potency is “inactive”.

Q: For `COc1cccc(NCc2cccn2-c2nnc(N3CCC(C)CC3)s2)c1`, which Potency is on record?
A: The Potency was inconclusive: 39.8 µM [inhibitor, single point].

Q: Which Potency does the source give for `Cn1c2ccccc2c2ncn(Cc3ccco3)c(=O)c21` here?
A: The Potency was “inactive”.

Q: With `CCN(CC)CCN(C(=O)c1ccc2c(c1)OCCO2)c1nc2ccc(C)cc2s1` as the compound, how does the Potency read?
A: Its Potency is active: 79.4 µM.

Q: With `COc1ccc(Cl)cc1NC(=O)c1c(NCc2ccc(C)o2)sc2c1CCC(C)C2` (stereo not given) as the compound, how does the Potency read?
A: The Potency was inconclusive: 5.01 µM [inhibitor, full curve, poor fit].

Q: With `NNC(=O)CS(=O)(=O)CS(=O)(=O)CC(=O)NN` as the compound, how does the Potency read?
A: Its Potency is active: 3.16 µM.

Q: `O=C(O)c1ccc(NS(=O)(=O)c2cccc(C(=O)Nc3ccc(Br)cc3)c2)cc1` was tested. Which activity, negative = inhibition did it give?
A: Its activity, negative = inhibition is inactive: 20.4% [at 0.501 µM].

Q: With `O=C(NN1C(=O)c2ccc(-c3ccc4c(c3)C(=O)N(NC(=O)c3cccnc3)C4=O)cc2C1=O)c1cccnc1` as the compound, how does the Potency read?
A: Its Potency is inconclusive: 89.1 µM [inhibitor, partial curve, poor fit].

Q: For `Cc1cccc(C(=O)NCC(=O)N(C)CC(=O)Nc2ccc(N3CCOCC3)cc2)c1`, which Potency is on record?
A: The Potency was inconclusive: 89.1 µM [inhibitor, single point].

Q: How did the Potency turn out when `Cc1nc2ccccc2n1CCC(=O)O` was run?
A: The Potency was “inactive”.

Q: With `COC(=O)c1cc2oc(C)cc2n1Cc1ccccc1Cl` as the compound, how does the Potency read?
A: The Potency was inconclusive: 15.8 µM [inhibitor, partial curve, poor fit].

Q: With `CCCCNC(=S)N(C)N=C1CCC(c2ccccc2)CC1` (stereo not given) as the compound, how does the Potency read?
A: The Potency was inconclusive: 50.1 µM [inhibitor, partial curve, poor fit].

Q: With `CCn1c2ccccc2c2nnc(SCCN3CCOCC3)nc21` as the compound, how does the activity, negative = inhibition read?
A: Its activity, negative = inhibition is inactive: -0.291% [at 0.501 µM].

Q: `COc1ccc(C(=O)n2nc(N)c3cc4ccc(C)cc4nc32)cc1OC` was tested. Which Potency did it give?
A: Its Potency is “inactive”.

Q: For `Cc1cccc(NC(=O)Cn2nc(-c3ccco3)ccc2=O)c1C`, which Potency is on record?
A: Its Potency is inconclusive: 89.1 µM [inhibitor, single point].

Q: Which Potency does the source give for `O=[N+]([O-])c1ccc(O)c(C2=NNC(c3ccccc3F)C2)c1` (stereo not given) here?
A: The Potency was active: 39.8 µM.

Q: For `COc1ccc2[nH]c3c(c2c1)CCNC3c1ccc([N+](=O)[O-])o1` (stereo not given), which Potency is on record?
A: Its Potency is active: 31.6 µM.

Q: `COc1ccc(NC(=O)C2CCC(CNS(=O)(=O)c3cccc4nsnc34)CC2)cc1OC` (stereo not given) was tested. Which Potency did it give?
A: The Potency was “inactive”.

Q: Which Potency does the source give for `CCCOC(=O)c1cccc(Nc2nc(CCC)cc(=O)[nH]2)c1` here?
A: The Potency was “inactive”.

Q: `O=C1CCCN1CCCNC(=S)Nc1ccc(F)c(Cl)c1` was tested. Which Potency did it give?
A: The Potency was inconclusive: 50.1 µM [inhibitor, single point].

Q: With `Cc1ccc(CN2C(=O)C(O)(c3c(C)[nH]c4ccccc34)c3ccccc32)cc1` (stereo not given) as the compound, how does the Potency read?
A: The Potency was inconclusive: 35.5 µM [inhibitor, partial curve, poor fit].

Q: With `CSCCC(NC(=O)C12CC3CC(CC(C3)C1)C2)C(=O)OCC(=O)c1ccc(C)cc1` (stereo not given) as the compound, how does the Potency read?
A: Its Potency is inconclusive: 39.8 µM [inhibitor, single point].

Q: With `COc1cc(C2CC(=O)N(Cc3cccc(F)c3)c3ccccc3S2)cc(OC)c1OC` (stereo not given) as the compound, how does the Potency read?
A: Its Potency is “inactive”.

Q: For `O=C(NCC1CCCO1)c1cccc(Oc2c(Cl)cccc2[N+](=O)[O-])c1` (stereo not given), which Potency is on record?
A: Its Potency is inconclusive: 25.1 µM [inhibitor, partial curve, poor fit].

Q: Which Potency does the source give for `CC1CCN(C(=O)c2c(NC(=O)c3ccccc3Cl)sc3c2CCC(C(C)(C)C)C3)CC1` (stereo not given) here?
A: The Potency was inconclusive: 3.16 µM [inhibitor, full curve, poor fit].

Q: How did the Potency turn out when `O=C(NC(=S)Nc1ccc(CN2CCOCC2)cc1)c1ccc([N+](=O)[O-])cc1` was run?
A: Its Potency is inconclusive: 39.8 µM [inhibitor, single point].

Q: For `COc1cc([N+](=O)[O-])ccc1-c1ccc(/C=N/NC(=O)c2ccccc2O)o1`, which Potency is on record?
A: Its Potency is inconclusive: 35.5 µM [inhibitor, single point].

Q: With `CCOc1ccc(C(CC(=O)O)NC(=O)Cc2ccccc2)cc1OC` (stereo not given) as the compound, how does the Potency read?
A: Its Potency is “inactive”.

Q: Which activity, negative = inhibition does the source give for `Brc1c(C[n+]2ccccc2)nc2ccccn12` here?
A: The activity, negative = inhibition was inconclusive: -60.6% [inhibitor] [at 12.7 µM].

Q: Which Potency does the source give for `COC(=O)c1[nH]c2ccccc2c1NC(=O)CN1CCCCCC1` here?
A: Its Potency is inconclusive: 39.8 µM [inhibitor, partial curve, poor fit].

Q: `Cc1ccccc1-c1nc(CN2CCCC(C(=O)NCc3ccc(Cl)cc3)C2)c(C)o1` (stereo not given) was tested. Which Potency did it give?
A: The Potency was inconclusive: 20 µM [inhibitor, partial curve, poor fit].

Q: Which Potency does the source give for `CN1CCC(N(C)C(=O)c2ccc(Cl)c(S(=O)(=O)N3CCOCC3)c2)CC1` here?
A: Its Potency is inconclusive: 31.6 µM [inhibitor, partial curve, poor fit].

Q: For `COC(=O)c1cccc(N2C(=O)c3ccccc3S2(=O)=O)c1`, which Potency is on record?
A: Its Potency is active: 56.2 µM.

Q: With `O=C(CSc1nccc(=O)[nH]1)NCc1ccc2c(c1)OCO2` as the compound, how does the Potency read?
A: The Potency was inconclusive: 89.1 µM [inhibitor, single point].

Q: Which Potency does the source give for `CCOC(=O)C1=C(C)NC2=C(C(=O)c3ccccc32)C1c1ccc(O)cc1` (stereo not given) here?
A: The Potency was inconclusive: 28.2 µM [inhibitor, single point].

Q: With `NC(CS)C(=O)O` (stereo not given) as the compound, how does the Potency read?
A: Its Potency is active: 15.8 µM.

Q: `COc1ccc(C(C#N)c2ccc(Cl)nn2)cc1` (stereo not given) was tested. Which Potency did it give?
A: The Potency was inconclusive: 89.1 µM [inhibitor, partial curve, poor fit].

Q: With `C=CCSC1=N/C(=C\c2ccc(C)o2)C(=O)S1` as the compound, how does the Potency read?
A: Its Potency is active: 22.4 µM.

Q: How did the Potency turn out when `COc1nnc(-c2ccc(N3CCOCC3)c(NC(C)=O)c2)c2ccccc12` was run?
A: Its Potency is inconclusive: 0.891 µM [inhibitor, single point].

Q: How did the Potency turn out when `O=C(CSc1nnc(C2CC2)n1-c1ccccc1)Nc1ccc(N2CCOCC2)cc1` was run?
A: The Potency was active: 56.2 µM.

Q: Which Potency does the source give for `O=S(=O)(N/N=C/c1ccc(OC2CSC2)cc1)c1ccccc1` here?
A: Its Potency is inconclusive: 89.1 µM [inhibitor, single point].

Q: `CCN(CC)CCCn1c2c(c(SCC(=O)Nc3cccc4ccccc34)nc1=O)CCC2` was tested. Which Potency did it give?
A: Its Potency is active: 39.8 µM.

Q: Which Potency does the source give for `CC(NC(=O)c1cc(S(=O)(=O)N(C)C)ccc1Cl)C1CC2CCC1C2` (stereo not given) here?
A: Its Potency is “inactive”.

Q: Which Potency does the source give for `CCn1c(/C=C2/C(=O)N(C)c3ccccc32)nc2ccccc2c1=O` here?
A: The Potency was active: 50.1 µM.

Q: How did the activity, negative = inhibition turn out when `CCC1Nc2ncnc(N3CCN(c4ccccc4)CC3)c2N(Cc2ccc(C)cc2)C1=O` (stereo not given) was run?
A: Its activity, negative = inhibition is inconclusive: -63.4% [inhibitor] [at 2.33 µM].
